Data as given in the supplement of paper PMC4967469.
Lines with a small IC50 respond at low doses; a fit beyond the top or the lowest dose is shown as a bound at that dose. AUC is the area under the same curve over the 256-fold range up to the top dose, as a fraction; the more sensitive the line, the further below 1. For some of these results: Where the top dose is marked as inferred, it comes from the curve model; the source does not state it. For some of these results: Drugs with an entry number were screened twice under separate entries, and the two screens often disagree.

Legend:
Assay in all cases: Viability of human cancer cell lines after 72 h of drug (GDSC screen)
LFM-A13 = compound: C/C(O)=C(\C#N)C(=O)Nc1cc(Br)ccc1Br [LFM-A13]; settings: top dose 16 µM; top dose inferred
Experimental: (§1)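 Human cancer cell lines in 384-well plates, medium with 10% serum, drug for 72 h over a 256-fold dose range (nine 2-fold or five 4-fold steps up to the top dose). Adherent lines were fixed and stained with the nucleic acid dye Syto60, suspension lines read with resazurin; signal relative to control wells, capped at 0 and 100%. One two-parameter sigmoid per drug and line, fitted in a mixed model over all curves with the slope shared within a line.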

Bicalutamide = compound: CC(O)(CS(=O)(=O)c1ccc(F)cc1)C(=O)Nc1ccc(C#N)c(C(F)(F)F)c1 [Bicalutamide]; settings: top dose inferred
Experimental: as §1

AUY922 = compound: CCNC(=O)c1noc(-c2cc(C(C)C)c(O)cc2O)c1-c1ccc(CN2CCOCC2)cc1 [AUY922]; settings: top dose 0.256 µM; top dose inferred
Experimental: as §1

KIN001-270 = compound: Cc1ccc(Nc2cc(-c3cccc(N4C(=O)c5ccccc5C4=O)c3)ncn2)cc1NS(C)(=O)=O [KIN001-270]; settings: top dose 20 µM; top dose inferred
Experimental: as §1

GNF-2 = compound: NC(=O)c1cccc(-c2cc(Nc3ccc(OC(F)(F)F)cc3)ncn2)c1 [GNF-2]; settings: top dose 1.28 µM; top dose inferred
Experimental: as §1

Gemcitabine = compound: Nc1ccn([C@@H]2O[C@H](CO)[C@@H](O)C2(F)F)c(=O)n1 [Gemcitabine]; settings: top dose 1.024 µM
Experimental: as §1

T0901317 = compound: O=S(=O)(c1ccccc1)N(CC(F)(F)F)c1ccc(C(O)(C(F)(F)F)C(F)(F)F)cc1 [T0901317]; settings: top dose 10.24 µM; top dose inferred
Experimental: as §1

MP470 = compound: S=C(NCc1ccc2c(c1)OCO2)N1CCN(c2ncnc3c2oc2ccccc23)CC1 [MP470]; settings: top dose 20 µM; top dose inferred
Experimental: as §1

TW-37 = compound: CC(C)c1ccccc1Cc1cc(C(=O)Nc2ccc(S(=O)(=O)c3ccccc3C(C)(C)C)cc2)c(O)c(O)c1O [TW-37]; settings: top dose 5 µM
Experimental: as §1

[1] = top dose 1.024 µM, screen: GDSC drug entry 150
[2] = top dose 10 µM, screen: GDSC drug entry 1502

## BC-3 (B-cell lymphoma, suspension)
LFM-A13
  AUC: 0.989
  IC50: > 16000 nM
Bicalutamide; [1]
  AUC: 0.988
  IC50: > 1020 nM
AUY922
  AUC: 0.537
  IC50: 20 nM
KIN001-270
  AUC: 0.96
  IC50: > 20000 nM
GNF-2
  AUC: 0.989
  IC50: > 1280 nM
Gemcitabine
  AUC: 0.712
  IC50: 235 nM
T0901317
  AUC: 0.951
  IC50: > 10200 nM
MP470
  AUC: 0.855
  IC50: 13400 nM

## KCL-22 (chronic myeloid leukaemia, suspension)
LFM-A13
  AUC: 0.989
  IC50: > 16000 nM
Bicalutamide; [1]
  AUC: 0.991
  IC50: > 1020 nM
Bicalutamide; [2]
  AUC: 0.99
  IC50: > 10000 nM
AUY922
  AUC: 0.504
  IC50: 16.4 nM
KIN001-270
  AUC: 0.982
  IC50: > 20000 nM
GNF-2
  AUC: 0.701
  IC50: 264 nM
Gemcitabine
  AUC: 0.309
  IC50: 20.7 nM
T0901317
  AUC: 0.9
  IC50: 9390 nM
MP470
  AUC: 0.89
  IC50: 16600 nM

## NCI-H128 (small cell lung carcinoma, suspension)
GNF-2
  AUC: 0.969
  IC50: > 1280 nM

## KP-N-RT-BM-1 (neuroblastoma, semi-adherent)
GNF-2
  AUC: 0.958
  IC50: > 1280 nM

## A704 (kidney, adherent)
LFM-A13
  AUC: 0.894
  IC50: > 16000 nM
Bicalutamide; [1]
  AUC: 0.984
  IC50: > 1020 nM
Bicalutamide; [2]
  AUC: 0.98
  IC50: > 10000 nM
KIN001-270
  AUC: 0.914
  IC50: > 20000 nM
GNF-2
  AUC: 0.975
  IC50: > 1280 nM
Gemcitabine
  AUC: 0.381
  IC50: 30.4 nM
T0901317
  AUC: 0.982
  IC50: > 10200 nM
MP470
  AUC: 0.902
  IC50: > 20000 nM

## CAL-148 (breast, suspension)
LFM-A13
  AUC: 0.983
  IC50: > 16000 nM
Bicalutamide; [1]
  AUC: 0.989
  IC50: > 1020 nM
AUY922
  AUC: 0.647
  IC50: 39.4 nM
KIN001-270
  AUC: 0.972
  IC50: > 20000 nM
GNF-2
  AUC: 0.989
  IC50: > 1280 nM
Gemcitabine
  AUC: 0.399
  IC50: 34.7 nM
T0901317
  AUC: 0.978
  IC50: > 10200 nM
MP470
  AUC: 0.875
  IC50: 17000 nM

## CP67-MEL (melanoma, adherent)
GNF-2
  AUC: 0.927
  IC50: > 1280 nM

## NCI-H748 (small cell lung carcinoma, suspension)
LFM-A13
  AUC: 0.942
  IC50: > 16000 nM
Bicalutamide; [1]
  AUC: 0.976
  IC50: > 1020 nM
AUY922
  AUC: 0.882
  IC50: > 256 nM
KIN001-270
  AUC: 0.915
  IC50: > 20000 nM
GNF-2
  AUC: 0.98
  IC50: > 1280 nM
Gemcitabine
  AUC: 0.659
  IC50: 201 nM
T0901317
  AUC: 0.978
  IC50: > 10200 nM
MP470
  AUC: 0.87
  IC50: > 20000 nM

## NK-92MI (lymphoid neoplasm, suspension)
LFM-A13
  AUC: 0.963
  IC50: > 16000 nM
Bicalutamide; [1]
  AUC: 0.988
  IC50: > 1020 nM
AUY922
  AUC: 0.583
  IC50: 26.6 nM
GNF-2
  AUC: 0.982
  IC50: > 1280 nM
Gemcitabine
  AUC: 0.22
  IC50: 10.5 nM

## SCC-3 (B-cell lymphoma, suspension)
LFM-A13
  AUC: 0.997
  IC50: > 16000 nM
Bicalutamide; [1]
  AUC: 0.996
  IC50: > 1020 nM
AUY922
  AUC: 0.965
  IC50: > 256 nM
KIN001-270
  AUC: 0.995
  IC50: > 20000 nM
GNF-2
  AUC: 0.997
  IC50: > 1280 nM
Gemcitabine
  AUC: 0.362
  IC50: 29.6 nM
T0901317
  AUC: 0.984
  IC50: > 10200 nM
MP470
  AUC: 0.985
  IC50: > 20000 nM

## ES3 (Ewing sarcoma, adherent)
LFM-A13
  AUC: 0.969
  IC50: > 16000 nM
Bicalutamide; [1]
  AUC: 0.985
  IC50: > 1020 nM
Bicalutamide; [2]
  AUC: 0.974
  IC50: > 10000 nM
AUY922
  AUC: 0.642
  IC50: 40.5 nM
KIN001-270
  AUC: 0.932
  IC50: > 20000 nM
GNF-2
  AUC: 0.946
  IC50: > 1280 nM
Gemcitabine
  AUC: 0.461
  IC50: 50 nM
T0901317
  AUC: 0.98
  IC50: > 10200 nM
MP470
  AUC: 0.753
  IC50: 7000 nM

## MV-4-11 (leukaemia, suspension)
LFM-A13
  AUC: 0.974
  IC50: > 16000 nM
TW-37
  AUC: 0.339
  IC50: 122 nM
Bicalutamide; [1]
  AUC: 0.99
  IC50: > 1020 nM
Bicalutamide; [2]
  AUC: 0.975
  IC50: > 10000 nM
AUY922
  AUC: 0.298
  IC50: 4.88 nM
KIN001-270
  AUC: 0.98
  IC50: > 20000 nM
GNF-2
  AUC: 0.99
  IC50: > 1280 nM
T0901317
  AUC: 0.837
  IC50: 5200 nM
MP470
  AUC: 0.764
  IC50: 6070 nM

## NCI-H2171 (small cell lung carcinoma, suspension)
LFM-A13
  AUC: 0.991
  IC50: > 16000 nM
Bicalutamide; [1]
  AUC: 0.992
  IC50: > 1020 nM
AUY922
  AUC: 0.792
  IC50: 99.3 nM
KIN001-270
  AUC: 0.979
  IC50: > 20000 nM
GNF-2
  AUC: 0.991
  IC50: > 1280 nM
Gemcitabine
  AUC: 0.872
  IC50: 757 nM
T0901317
  AUC: 0.985
  IC50: > 10200 nM
MP470
  AUC: 0.934
  IC50: > 20000 nM

## TE-441-T (rhabdomyosarcoma, adherent)
LFM-A13
  AUC: 0.987
  IC50: > 16000 nM
Bicalutamide; [1]
  AUC: 0.985
  IC50: > 1020 nM
AUY922
  AUC: 0.578
  IC50: 26 nM
KIN001-270
  AUC: 0.962
  IC50: > 20000 nM
GNF-2
  AUC: 0.987
  IC50: > 1280 nM
Gemcitabine
  AUC: 0.844
  IC50: 689 nM
T0901317
  AUC: 0.989
  IC50: > 10200 nM
MP470
  AUC: 0.966
  IC50: > 20000 nM

## SKM-1 (haematopoietic neoplasm, suspension)
TW-37
  AUC: 0.514
  IC50: 342 nM
Bicalutamide; [2]
  AUC: 0.96
  IC50: > 10000 nM
GNF-2
  AUC: 0.953
  IC50: > 1280 nM

## HEL (acute myeloid leukaemia, semi-adherent)
LFM-A13
  AUC: 0.965
  IC50: > 16000 nM
TW-37
  AUC: 0.544
  IC50: 403 nM
Bicalutamide; [1]
  AUC: 0.991
  IC50: > 1020 nM
Bicalutamide; [2]
  AUC: 0.99
  IC50: > 10000 nM
AUY922
  AUC: 0.498
  IC50: 15.8 nM
KIN001-270
  AUC: 0.981
  IC50: > 20000 nM
GNF-2
  AUC: 0.992
  IC50: > 1280 nM
T0901317
  AUC: 0.955
  IC50: > 10200 nM
MP470
  AUC: 0.89
  IC50: 16200 nM

## EW-12 (Ewing sarcoma, suspension)
GNF-2
  AUC: 0.975
  IC50: > 1280 nM

## KP-N-YS (neuroblastoma, adherent)
LFM-A13
  AUC: 0.949
  IC50: > 16000 nM
Bicalutamide; [1]
  AUC: 0.981
  IC50: > 1020 nM
AUY922
  AUC: 0.706
  IC50: 67.1 nM
KIN001-270
  AUC: 0.911
  IC50: > 20000 nM
GNF-2
  AUC: 0.981
  IC50: > 1280 nM
T0901317
  AUC: 0.976
  IC50: > 10200 nM
MP470
  AUC: 0.839
  IC50: 16600 nM

## THP-1 (acute myeloid leukaemia, suspension)
LFM-A13
  AUC: 0.99
  IC50: > 16000 nM
TW-37
  AUC: 0.741
  IC50: 1400 nM
KIN001-270
  AUC: 0.975
  IC50: > 20000 nM
GNF-2
  AUC: 0.988
  IC50: > 1280 nM
MP470
  AUC: 0.79
  IC50: 7960 nM
